Source: PubChem BioAssay (NCI)
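In this assay, cells in 96-well plates receive the compound at five concentrations for 48 hours. Endpoints are linearly interpolated between the surrounding concentrations. The concentration for 50% growth inhibition is given as GI50. TGI: total growth inhibition.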

system: NCI-H322M lung; test: NCI tumour cell line growth inhibition, 48 h

Structure (SMILES) | GI50 | TGI
C=C(C)[C@@H]1CC[C@]2(CNCCO)CC[C@]3(C)[C@H](CC[C@@H]4[C@@]5(C)CCC(N)[C@@](C)(CO)[C@@H]5CC[C@]43C)[C@@H]12 (stereo not given in full) | 1790 nM | 3.53 µM
O=C1NC(=NCCc2cccs2)S/C1=C\c1ccc2ncccc2c1 | 14000 nM | > 25 µM
COc1ccc(C23c4ccc(OC)cc4CC2(c2ccc([N+](=O)[O-])cc2)Cc2cc(OC)ccc23)cc1 (stereo not given) |  | > 100 µM
C=C1C(=O)OC2C1CC[C@H](C)C1(O)C(O)CC(=O)[C@@]21C (stereo not given in full) |  | 96.8 µM
Cc1sccc1C(=S)Nc1ccc(Cl)c(/C=N/OC(C)(C)C)c1 |  | > 100 µM
O=c1c(O)c(O)c1=O.[NH2-].[NH2-].[NH2-].[NH2-].[NH2-].[Ru+5] | > 100000 nM | > 100 µM
COc1cc(Nc2cc(C)nc(N3CCN(c4ccnc5cc(Cl)ccc45)CC3)n2)cc(OC)c1 | 141 nM | > 100 µM
CCN(C1=CC(=O)NC2CCCCN12)c1ccccc1 (stereo not given) |  | > 100 µM
O=c1nc(Oc2c(F)c(F)c(F)c(F)c2F)ccn1C1OC(CO)C(O)C1O (stereo not given) |  | > 100 µM
CCCCC1=C(Br)C(=C(Br)Br)OC1=O |  | 22 µM
CCN1C/C(=C\c2cc(OC)c(OC)c(OC)c2)C2=NN(c3ccccc3)C(c3cc(OC)c(OC)c(OC)c3)C2C1 (stereo not given) |  | 23.8 µM
COc1c(CC(=O)c2ccccc2)c2ccccc2n1C(C)=O |  | > 100 µM
COc1cccc2c1C(CO)N1C(C#N)C3CC(C(=O)O)C(C1C2)N3C (stereo not given) | 659 nM | 5.35 µM
Cn1cc(C2=C(Sc3ccccc3)C(=O)NC2=O)c2ccccc21 | > 25000 nM | > 25 µM
CCc1cccc(C(C)C)c1NC(=O)C(=O)C1C(=O)NC(=O)NC1=O |  | > 100 µM
CCN(CC)c1ccc(N=O)cc1 | 2090 nM | 6.02 µM
COc1ccc(C2=NN(C(=O)c3ccc(Cl)cc3)C(O)(c3cc(F)c(Cl)cc3Cl)C2)cc1OC (stereo not given) |  | > 100 µM
COC1C(CO)OC(n2c3ccccc3c3c4c(c5c6ccccc6[nH]c5c32)C(=O)NC4=O)C(OC(=O)C(N)CCCCN)C1O (stereo not given) | 49.3 nM | 0.593 µM
CC(C)(C)c1[nH]nc2c1C(c1cc3ccccc3[nH]c1=O)Nc1cc(C(=O)Nc3ccc(Cl)cc3)ccc1N2 (stereo not given) | 3060 nM | 9.84 µM

Structure (SMILES) | GI50 | TGI
CSC1(C)CC2C(CC1N1CCCCC1)C2(C)C (stereo not given) |  | > 100 µM
O=C1/C(=C/c2ccc3c(c2)CCC3)Cc2cc3c(cc21)CCC3 |  | > 100 µM
C=C(C(=O)OC)[C@H]1CC/C(C)=C/CC[C@@](C)(O)C=CC[C@@]2(C)O[C@@H]2C1 |  | 79.6 µM
CCOC(=O)[C@@H]1C2C(=C[C@H]3[C@H]1C(=O)N1CCCC[C@H]31)CCCN2C(=O)OCc1ccccc1 (stereo not given in full) |  | > 100 µM
N#CC(C#N)=C/C=C(\Sc1ccc(F)c(Cl)c1)c1ccc(Cl)cc1 | 16200 nM | 31.9 µM
Nc1ncnc2oc(-c3cccs3)nc12 |  | > 100 µM
O=P(O)(OP(=O)(O)c1ccccc1)c1ccccc1 (tested in a mixture with another compound) |  | > 100 µM
O=C(O)/C=N/NC(=S)NC1CCCCC1 |  | > 100 µM
CC(NC(=O)C(CC(=O)OCc1ccccc1)NC(=O)OCc1ccccc1)c1ccccc1 (stereo not given) |  | > 100 µM
CC(NC(=O)C(C)C(=O)Nc1ccc(C(F)(F)F)cc1)C(N)=O (stereo not given) |  | > 100 µM
C=C(Br)CN(C)CC(=C)Br |  | > 100 µM
CC(C)(O)c1coc(S(=O)(=O)/N=C(\O)Nc2c3c(cc4c2CCC4)CCC3)c1 | > 100000 nM | > 100 µM
COc1cc(OC)cc(Oc2nc3cc(N)cc(N)c3nc2-c2ccccc2)c1 | 2260 nM | 15.1 µM
CCc1c2c(nc3ccc(O)cc13)-c1cc3c(c(=O)n1C2)COC(=O)[C@]3(O)CC | 71.2 nM | > 18.6 µM
O=C1/C(=C/c2cccc(O)c2)COc2ccccc21 |  | 32.9 µM
Cc1[nH]c2c(C)cccc2c1C1Cc2ccccc2N1 (stereo not given) |  | 55.8 µM
COc1cc2c[n+]3ccc4cc(OC)c(OC)cc4c3cc2cc1O |  | > 100 µM
Cc1ncc([N+](=O)[O-])n1CC(O)Cn1ccnc1[N+](=O)[O-] (stereo not given) |  | > 100 µM
